Data from patent publication US20160237132A1 (ALKERMES, published 2016).

Target: IL-6 (UniProt P05231 30-212, limits assumed)
Assay: cell-based or functional assay

Sequence of IL-6 (P05231 30-212 limits assumed): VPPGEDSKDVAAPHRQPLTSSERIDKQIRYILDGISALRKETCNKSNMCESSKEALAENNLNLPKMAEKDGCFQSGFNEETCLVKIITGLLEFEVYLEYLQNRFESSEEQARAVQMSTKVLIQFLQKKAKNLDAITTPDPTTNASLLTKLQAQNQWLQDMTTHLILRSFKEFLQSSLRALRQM

| IC50, inhibition of IL-6-dependent differentiation of M1 cells (percent CD32 positive cells; stimulated with IL-6 and IL-6Ra) [nM] | fold potency against RDB1601, inhibition of IL-6-dependent differentiation of M1 cells [fold] | Binder |
| --- | --- | --- |
| 20.1 | – | RDB1601 (Fc fusion) MDAMKRGLCCVLLLCGAVFVSARLLDPCGYISPESPVVQLHSNFTAVCVLKEKCMDYFHVNANYIVWKTNHFTIPKEQYTIINRTASSVTFTDIASLNIQLTCNILTFGQLEQNVYGITIISGLPPEKPKNLSCIVNEGKKMRCEWDGGRETHLETNFTLKSEWATHKFADCKAKRDTPTSCTVDYSTVYFVNIEVWVEAENALGKVTSDHINFDPVYKVKPNPPHNLSVINSEELSSILKLTWTNPSIKSVIILKYNIQYRTKDASTWSQIPPEDTASTRSSFTVQDLKPFTEYVFRIRCMKEDGKGYWSDWSEEASGITTGGG[letters of human IgG1 Fc not shown] |
| 2.5 | 8 | RDB1613 (Fc fusion) LLDPCGYISPESPVVQLHSNFTAVCVLKEKCMDYFHVNANYIVWKTNHFTIPKEQYTIINRTASSVTFTDIASLNIQLTCNILTFGQLEQNVYGITIISGLPPEKPKNLSCIVNEGKKMRCEWDGGRETHLETNFTLKSEWATHKFADCKAKRDTPTSCTVDYSTVYFVNIEVWVEAENALGKVTSDHINFDPVYKVKPNPPHNLSVINSEELSSILKLTWTNPSIKSVIILKYNIQYRTKDASTWSQIPPEDTASTRSSFTVQDLKPFTEYVFRIRCMKEDGKGYWSDWSEEASGITYEDRGGGSGGGASSESSASSDGPHPVITESRASSESSASSDGPHPVITESR[letters of human IgG1 Fc with C220S (EU numbers) not shown] |
